Data as given in PMC4336329 (PLoS ONE, 2015).
About 2,200 (0.71%) of roughly 310,000 compounds showed an effect of 50% or more. The effect is printed as a negative number. The list shows a part of the results.

target: human ether-à-go-go-related gene (hERG) potassium channel (human, UniProt Q12809); assay: primary screen, population patch clamp on CHO cells stably expressing hERG
Sequence (Q12809 whole entry, looked up): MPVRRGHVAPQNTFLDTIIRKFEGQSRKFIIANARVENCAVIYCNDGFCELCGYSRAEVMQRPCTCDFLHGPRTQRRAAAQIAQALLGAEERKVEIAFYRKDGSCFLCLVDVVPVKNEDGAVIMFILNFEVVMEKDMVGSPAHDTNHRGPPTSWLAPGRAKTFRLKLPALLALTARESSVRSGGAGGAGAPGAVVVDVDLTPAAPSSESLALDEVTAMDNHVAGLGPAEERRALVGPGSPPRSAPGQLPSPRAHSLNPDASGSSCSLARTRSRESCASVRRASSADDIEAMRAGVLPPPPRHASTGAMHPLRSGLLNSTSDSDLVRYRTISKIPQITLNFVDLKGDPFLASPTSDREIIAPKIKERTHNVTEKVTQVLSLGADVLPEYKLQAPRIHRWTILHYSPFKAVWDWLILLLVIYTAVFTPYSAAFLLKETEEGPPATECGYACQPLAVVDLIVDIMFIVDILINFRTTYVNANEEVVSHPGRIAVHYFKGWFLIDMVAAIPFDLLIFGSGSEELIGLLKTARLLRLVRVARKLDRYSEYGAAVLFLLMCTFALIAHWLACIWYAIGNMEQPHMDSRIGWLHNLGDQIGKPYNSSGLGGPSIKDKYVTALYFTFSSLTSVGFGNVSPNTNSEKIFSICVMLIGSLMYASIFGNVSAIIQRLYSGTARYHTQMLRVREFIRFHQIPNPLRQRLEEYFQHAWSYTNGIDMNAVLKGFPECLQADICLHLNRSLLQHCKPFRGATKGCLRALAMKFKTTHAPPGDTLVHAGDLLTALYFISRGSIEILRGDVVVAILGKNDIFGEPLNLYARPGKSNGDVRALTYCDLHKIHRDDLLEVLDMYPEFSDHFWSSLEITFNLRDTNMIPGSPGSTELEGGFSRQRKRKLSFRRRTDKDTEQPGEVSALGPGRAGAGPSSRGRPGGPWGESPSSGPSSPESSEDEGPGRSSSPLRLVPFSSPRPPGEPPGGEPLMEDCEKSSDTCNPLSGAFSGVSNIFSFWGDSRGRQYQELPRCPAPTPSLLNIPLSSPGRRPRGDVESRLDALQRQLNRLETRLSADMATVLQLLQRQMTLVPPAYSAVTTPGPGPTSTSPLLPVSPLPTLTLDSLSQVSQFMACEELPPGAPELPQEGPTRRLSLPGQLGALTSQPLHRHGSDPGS

Row | SMILES | hERG current change (%, negative = inhibition) at 1uM [%]
1 | CCOC(=O)Cn1nc(NC(=O)c2ccc3c(c2)OCO3)cc1C | 14.2
2 | CCOC(=O)C(=N/O)/C(C)=N/NC(=O)C(=O)Nc1cc(Cl)ccc1Cl | 9.69
3 | CC(C)N(C(=O)COC(=O)c1ccc([N+](=O)[O-])cc1)c1ccccc1 | 15.8
4 | CN1C(=S)SC(N2OC3C(=O)N(c4ccccc4)C(=O)C3C2c2ccccc2)C1(C)C (centres unmarked) | 6.25
5 | CC(C)C(=O)NCCc1nc2ccccc2n1C | 7.75
6 | COc1cc(OC)cc(-c2cn[nH]c2N)c1 | -4.19
7 | O=C(NCC1CCCO1)c1cc(Br)c(Br)s1 (centres unmarked) | 7.3
8 | O=C(COC(=O)CCS(=O)(=O)c1ccc(F)cc1)NC1CCCCC1 | -0.0657
9 | O=C(CSCC(=O)Nc1ccc2ccccc2c1)NCc1ccccc1 | 12.6
10 | CN=C(Nc1cc(C)nn1-c1ccccc1)c1ccccc1 | 6.61
11 | Cc1cccc(NC(=O)CNC(=O)COc2cccnc2[N+](=O)[O-])c1C | 11.8
12 | CC1CCN(S(=O)(=O)c2cn(CC(=O)Nc3ccc(OC(F)(F)F)cc3)cn2)CC1 | 15.1
13 | CN1c2ccccc2C(O)=C(C(=S)Nc2ccccc2)S1(=O)=O | 19.2
14 | COCCCNC(=O)C(=O)N/N=C/c1cc2c(cc1Br)OCO2 | 5.88
15 | CN1CCN(Cc2c(F)cccc2Cl)CC1 | 5.84
16 | Cc1ccccc1C(=O)N1CCN(c2ccc(NC(=S)NC(=O)c3ccco3)cc2)CC1 | -3.1
17 | c1ccc2cc(CC3=NCCN3)ccc2c1 | 7.94
18 | N#Cc1nc(COc2ccc(Br)cc2)oc1N1CCCC1 | -0.407
19 | CCOC(=O)C1Nc2ccc(C(F)(F)F)cc2C2c3ccccc3CC12 (centres unmarked) | 5.95
20 | CCC(CC)C(=O)Nc1cccc(C(=O)Nc2nccs2)c1 | 19.2
21 | CC(=O)NC1=NN(C(C)=O)C(c2ccco2)S1 (centres unmarked) | 16.5
22 | Cc1cccc(-c2nc(CN3CCCC(C(=O)NC4CCCC4)C3)c(C)o2)c1 (centres unmarked) | -26.4

Row | SMILES | hERG current change (%, negative = inhibition) at 1uM [%]
23 | COCCn1c(SCC(=O)Nc2ccc(Cl)cn2)nc2ccccc21 | -9.42
24 | CCCOc1ccc(-c2nc(C#N)c(N3CCN(CC)CC3)o2)cc1 | 1.77
25 | COc1ccc(S(=O)(=O)Nc2nc3c(s2)C(=O)CC(C)(C)C3)cc1 | 5.18
26 | Cc1cc(NC(=O)CSc2nc3c(c(=O)n2C)SCC3)no1 | 11.5
27 | Cc1ccc(C(C)NC(=O)c2ccco2)cc1 (centres unmarked) | 1.87
28 | Cc1ccc2nc(NCC(N)=O)nc(-c3ccccc3)c2c1 | 7.6
29 | COc1ccc(NC(=O)CSCC(=O)Nc2ccccc2N2CCCC2)cc1 | 10.3
30 | CS(=O)(=O)N1CCCC(C(=O)NCc2ccc(F)cc2)C1 (centres unmarked) | 6.57
31 | Cc1ccccc1C(=O)Nc1cccc(NC(=O)c2ncn[nH]2)c1 | 13.8
32 | O=C1/C(=C/c2ccccc2O)SC(=S)N1Cc1cccnc1 | 8.52
33 | CCS(=O)(=O)N1CCC(C(=O)Oc2ccc(C)c(C)c2)CC1 | 16.3
34 | CC12CCC(=O)N1C(C(=O)OCC(=O)Nc1cccc(Br)c1)CS2 (centres unmarked) | -1.7
35 | COc1cc(OC)cc(-c2nnc(SCc3c(F)cccc3Cl)o2)c1 | 6.61
36 | CCc1ccccc1NC(=O)c1cc([N+](=O)[O-])ccc1N1CCOCC1 | 1.7
37 | O=C(CC(c1ccccc1)c1ccccc1)Nc1ccc2c(c1)OCCO2 | -0.171
38 | COc1ccc(NC(=O)CN(C)C(=O)c2ccc(N3CCCCC3)c([N+](=O)[O-])c2)cc1 | -21.2
39 | CCCc1nc2ccccc2c(=O)n1CC(=O)c1ccc(F)cc1 | 10.5
40 | O=C(N/N=C/C1C(c2ccccc2)C1(Cl)Cl)c1cccc(Cl)c1 (centres unmarked) | 7.97
41 | CN(CC(=O)Nc1ccc(Cl)c(Cl)c1)Cc1nnc(-c2ccc(F)cc2)o1 | 0.919
42 | CC(C)C(=O)Nc1cccc(-c2cnc3ccccc3n2)c1 | 11.7
43 | COc1ccc(NC(=S)NC(=O)/C=C/c2ccccc2)cc1 | 10.6
44 | Cc1cccc(OCC(=O)N2CCN(S(C)(=O)=O)CC2)c1 | 9.87
